According to the supplement of paper PMC12217912:
The other results are listed elsewhere or left out. Sequences were assembled here from the parent chain. Inactive controls read about 0.05.

B1: TEV protease; numbered along this chain (parent)
chain: MGESLFKGPRDYNPISSSICHLTNESDGHTTSLYGIGFGPFIITNKHLFRRNNGTLVVQSLHGVFKVKDTTTLQQHLVDGRDMIIIRMPKDFPPFPQKLKFREPQREERICLVTTNFQTKSMSSMVSDTSCTFPSGDGIFWKHWIQTKDGQCGSPLVSTRDGFIVGIHSASNFTNTNNYFTSVPKNFMELLTNQEAQQWVSGWRLNADSVLWGGHKVFMVKPEEPFQPVKEATQL

Variants of: B1
Assay: raw area under fraction-flipped curve 0-4 h after induction (AUC4h, not background-subtracted), DNA-recorder readout of cleavage of the substrate (dimensionless); higher = more cleavage of the substrate by the protease variant
Conditions: temperature: 34 °C; time window: 0-4 h after rhamnose induction
Experimental: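 In vivo DNA recorder in E. coli TOP10(DE3) ΔrhaA at 34 °C. Each TEVp single-site mutant (parent TEVp 0) is paired with a single-site variant of the 7-mer TEVs (canonical ENLYFQ|S). The substrate sits between flexible linkers in a Bxb1-sfGFP-TEVs-SsrA fusion, so cleavage stabilises Bxb1 and speeds flipping of a recombination array, read by NGS. The value is the raw area under the fraction-flipped curve over 0-4 h after rhamnose induction (AUC4h), with ≥20 reads per time point. It is not background-subtracted; inactive controls average about 0.047.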
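Note: Bxb1 expression induced with 0.2% (w/v) L-rhamnose at OD600 near 0.5, cultures sampled hourly, flipped fraction per protease–substrate barcode pair counted by paired-end Illumina sequencing.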

MGESLFIGPRDYNPISSSICHLTNESDGHTTSLYGIGFGPFIITNKHLFRRNNGTLVVQSLHGVFKVKDTTTLQQHLVDGRDMIIIRMPKDFPPFPQKLKFREPQREERICLVTTNFQTKSMSSMVSDTSCTFPSGDGIFWKHWIQTKDGQCGSPLVSTRDGFIVGIHSASNFTNTNNYFTSVPKNFMELLTNQEAQQWVSGWRLNADSVLWGGHKVFMVKPEEPFQPVKEATQL [K7I]
area with substrate ENLYFQC: 0.0716 | area with substrate ENLYFQD: 0.0583 | area with substrate ENLYFQI: 0.0614 | area with substrate ENLYFQK: 0.0996 | area with substrate ENLYFQM: 0.0684 | area with substrate ENLYFQQ: 0.0695 | area with substrate ENLYFQR: 0.058 | area with substrate ENLYFQS: 0.0701 | area with substrate ENLYFQT: 0.0627 | area with substrate ENLYFQW: 0.0538

MGESLFPGPRDYNPISSSICHLTNESDGHTTSLYGIGFGPFIITNKHLFRRNNGTLVVQSLHGVFKVKDTTTLQQHLVDGRDMIIIRMPKDFPPFPQKLKFREPQREERICLVTTNFQTKSMSSMVSDTSCTFPSGDGIFWKHWIQTKDGQCGSPLVSTRDGFIVGIHSASNFTNTNNYFTSVPKNFMELLTNQEAQQWVSGWRLNADSVLWGGHKVFMVKPEEPFQPVKEATQL [K7P]
area with substrate ENLYFQC: 0.0829 | area with substrate ENLYFQE: 0.0681 | area with substrate ENLYFQG: 0.088 | area with substrate ENLYFQH: 0.069 | area with substrate ENLYFQK: 0.0663 | area with substrate ENLYFQM: 0.0516 | area with substrate ENLYFQN: 0.0894 | area with substrate ENLYFQP: 0.0896 | area with substrate ENLYFQS: 0.0946

MGESLFKGPRDYNPVSSSICHLTNESDGHTTSLYGIGFGPFIITNKHLFRRNNGTLVVQSLHGVFKVKDTTTLQQHLVDGRDMIIIRMPKDFPPFPQKLKFREPQREERICLVTTNFQTKSMSSMVSDTSCTFPSGDGIFWKHWIQTKDGQCGSPLVSTRDGFIVGIHSASNFTNTNNYFTSVPKNFMELLTNQEAQQWVSGWRLNADSVLWGGHKVFMVKPEEPFQPVKEATQL [I15V]
area with substrate ENLYFQC: 0.105 | area with substrate ENLYFQD: 0.0696 | area with substrate ENLYFQG: 0.0964 | area with substrate ENLYFQH: 0.0851 | area with substrate ENLYFQI: 0.0612 | area with substrate ENLYFQK: 0.0657 | area with substrate ENLYFQL: 0.0665 | area with substrate ENLYFQM: 0.0831 | area with substrate ENLYFQN: 0.0586 | area with substrate ENLYFQP: 0.0456 | area with substrate ENLYFQR: 0.0603 | area with substrate ENLYFQS: 0.103 | area with substrate ENLYFQT: 0.0684 | area with substrate ENLYFQV: 0.0567 | area with substrate ENLYFQW: 0.0595 | area with substrate ENLYFQY: 0.0876

MGESLFKGPRDYNPISSSICHLTNEMDGHTTSLYGIGFGPFIITNKHLFRRNNGTLVVQSLHGVFKVKDTTTLQQHLVDGRDMIIIRMPKDFPPFPQKLKFREPQREERICLVTTNFQTKSMSSMVSDTSCTFPSGDGIFWKHWIQTKDGQCGSPLVSTRDGFIVGIHSASNFTNTNNYFTSVPKNFMELLTNQEAQQWVSGWRLNADSVLWGGHKVFMVKPEEPFQPVKEATQL [S26M]
area with substrate ENLYFQC: 0.0873 | area with substrate ENLYFQD: 0.0624 | area with substrate ENLYFQE: 0.0602 | area with substrate ENLYFQF: 0.0717 | area with substrate ENLYFQG: 0.149 | area with substrate ENLYFQI: 0.0507 | area with substrate ENLYFQM: 0.0815 | area with substrate ENLYFQN: 0.0663 | area with substrate ENLYFQP: 0.0658 | area with substrate ENLYFQR: 0.057 | area with substrate ENLYFQS: 0.0767 | area with substrate ENLYFQT: 0.0657 | area with substrate ENLYFQV: 0.0577 | area with substrate ENLYFQW: 0.0556 | area with substrate ENLYFQY: 0.0859

MGESLFKGPRDYNPISSSICHLTNESYGHTTSLYGIGFGPFIITNKHLFRRNNGTLVVQSLHGVFKVKDTTTLQQHLVDGRDMIIIRMPKDFPPFPQKLKFREPQREERICLVTTNFQTKSMSSMVSDTSCTFPSGDGIFWKHWIQTKDGQCGSPLVSTRDGFIVGIHSASNFTNTNNYFTSVPKNFMELLTNQEAQQWVSGWRLNADSVLWGGHKVFMVKPEEPFQPVKEATQL [D27Y]
area with substrate ENLYFQC: 0.127 | area with substrate ENLYFQD: 0.0699 | area with substrate ENLYFQE: 0.0539 | area with substrate ENLYFQF: 0.0863 | area with substrate ENLYFQG: 0.0885 | area with substrate ENLYFQH: 0.0636 | area with substrate ENLYFQI: 0.0603 | area with substrate ENLYFQK: 0.0571 | area with substrate ENLYFQM: 0.0808 | area with substrate ENLYFQN: 0.0649 | area with substrate ENLYFQQ: 0.0627 | area with substrate ENLYFQR: 0.052 | area with substrate ENLYFQS: 0.089 | area with substrate ENLYFQT: 0.0578 | area with substrate ENLYFQV: 0.0511 | area with substrate ENLYFQW: 0.0635 | area with substrate ENLYFQY: 0.0693

MGESLFKGPRDYNPISSSICHLTNESDGHVTSLYGIGFGPFIITNKHLFRRNNGTLVVQSLHGVFKVKDTTTLQQHLVDGRDMIIIRMPKDFPPFPQKLKFREPQREERICLVTTNFQTKSMSSMVSDTSCTFPSGDGIFWKHWIQTKDGQCGSPLVSTRDGFIVGIHSASNFTNTNNYFTSVPKNFMELLTNQEAQQWVSGWRLNADSVLWGGHKVFMVKPEEPFQPVKEATQL [T30V]
area with substrate ENLYFQC: 0.101 | area with substrate ENLYFQD: 0.0676 | area with substrate ENLYFQH: 0.0973 | area with substrate ENLYFQI: 0.0747 | area with substrate ENLYFQL: 0.0608 | area with substrate ENLYFQM: 0.145 | area with substrate ENLYFQR: 0.0628 | area with substrate ENLYFQS: 0.113 | area with substrate ENLYFQV: 0.0633 | area with substrate ENLYFQW: 0.0793

MGESLFKGPRDYNPISSSICHLTNESDGHTTSCYGIGFGPFIITNKHLFRRNNGTLVVQSLHGVFKVKDTTTLQQHLVDGRDMIIIRMPKDFPPFPQKLKFREPQREERICLVTTNFQTKSMSSMVSDTSCTFPSGDGIFWKHWIQTKDGQCGSPLVSTRDGFIVGIHSASNFTNTNNYFTSVPKNFMELLTNQEAQQWVSGWRLNADSVLWGGHKVFMVKPEEPFQPVKEATQL [L33C]
area with substrate ENLYFQC: 0.122 | area with substrate ENLYFQD: 0.0732 | area with substrate ENLYFQE: 0.0577 | area with substrate ENLYFQG: 0.115 | area with substrate ENLYFQH: 0.0726 | area with substrate ENLYFQI: 0.0609 | area with substrate ENLYFQK: 0.0474 | area with substrate ENLYFQL: 0.0563 | area with substrate ENLYFQR: 0.0566 | area with substrate ENLYFQS: 0.111 | area with substrate ENLYFQT: 0.0798 | area with substrate ENLYFQV: 0.0655

MGESLFKGPRDYNPISSSICHLTNESDGHTTSLYGIGDGPFIITNKHLFRRNNGTLVVQSLHGVFKVKDTTTLQQHLVDGRDMIIIRMPKDFPPFPQKLKFREPQREERICLVTTNFQTKSMSSMVSDTSCTFPSGDGIFWKHWIQTKDGQCGSPLVSTRDGFIVGIHSASNFTNTNNYFTSVPKNFMELLTNQEAQQWVSGWRLNADSVLWGGHKVFMVKPEEPFQPVKEATQL [F38D]
area with substrate ENLYFQC: 0.0493 | area with substrate ENLYFQI: 0.0358 | area with substrate ENLYFQM: 0.022 | area with substrate ENLYFQS: 0.07

MGESLFKGPRDYNPISSSICHLTNESDGHTTSLYGIGFGPCIITNKHLFRRNNGTLVVQSLHGVFKVKDTTTLQQHLVDGRDMIIIRMPKDFPPFPQKLKFREPQREERICLVTTNFQTKSMSSMVSDTSCTFPSGDGIFWKHWIQTKDGQCGSPLVSTRDGFIVGIHSASNFTNTNNYFTSVPKNFMELLTNQEAQQWVSGWRLNADSVLWGGHKVFMVKPEEPFQPVKEATQL [F41C]
area with substrate ENLYFQC: 0.101 | area with substrate ENLYFQD: 0.0548 | area with substrate ENLYFQG: 0.0862 | area with substrate ENLYFQH: 0.0977 | area with substrate ENLYFQI: 0.0628 | area with substrate ENLYFQK: 0.0589 | area with substrate ENLYFQM: 0.17 | area with substrate ENLYFQN: 0.0914 | area with substrate ENLYFQP: 0.054 | area with substrate ENLYFQR: 0.0636 | area with substrate ENLYFQS: 0.0983 | area with substrate ENLYFQT: 0.0631 | area with substrate ENLYFQV: 0.0605 | area with substrate ENLYFQW: 0.0694 | area with substrate ENLYFQY: 0.0724
